The values that follow come from patent publication US7619094B2, “Ketoamides with cyclic P4's as inhibitors of NS3 serine protease of hepatitis C virus” (Schering Corporation, priority 2004, dated 2009).

The first assay deals with Recombinant heterodimeric HCV NS3/NS4A protease (strain 1a) (Hepatitis C virus genotype 1a, UniProt P27958). In words: HCV continuous assay (spectrophotometric HCV NS3/NS4A serine protease inhibition assay). The following applies: Table 1; ranges of Ki* values in HCV continuous assay. The assay is classed as biochemical, HCV (strain 1a). The text has this:
The present invention relates to novel HCV protease inhibitors. This utility can be manifested in their ability to inhibit the HCV NS3/NS4a serine protease.
Assay for HCV Protease Inhibitory Activity:
• Spectrophotometric Assay: Spectrophotometric assay for the HCV serine protease can be performed on the inventive compounds by following the procedure described by R. Zhang et al, Analytical Biochemistry, 270 (1999) 268-275, the disclosure of which is incorporated herein by reference. The assay based on the proteolysis of chromogenic ester substrates is suitable for the continuous monitoring of HCV NS3 protease activity. The substrates are derived from the P side of the NS5A-NS5B junction sequence (Ac-DTEDWX(Nva), where X=A or P) whose C-terminal carboxyl groups are esterified with one of four different chromophoric alcohols (3- or 4-nitrophenol, 7-hydroxy-4-methyl-coumarin, or 4-phenylazophenol). Illustrated below are the synthesis, characterization and application of these novel spectrophotometric ester substrates to high throughput screening and detailed kinetic evaluation of HCV NS3 protease inhibitors. Materials and Methods:
Materials: Chemical reagents for assay related buffers are obtained from Sigma Chemical Company (St. Louis, Mo.). Reagents for peptide synthesis were from Aldrich Chemicals, Novabiochem (San Diego, Calif.), Applied Biosystems (Foster City, Calif.) and Perseptive Biosystems (Framingham, Mass.). Peptides are synthesized manually or on an automated ABI model 431A synthesizer (from Applied Biosystems). UV/VIS Spectrometer model LAMBDA 12 was from Perkin Elmer (Norwalk, Conn.) and 96-well UV plates were obtained from Corning (Corning, N.Y.). The prewarming block can be from USA Scientific (Ocala, Fla.) and the 96-well plate vortexer is from Labline Instruments (Melrose Park, Ill.). […] Protein concentrations are determined by the Biorad dye method using recombinant HCV protease standards previously quantified by amino acid analysis. Prior to assay initiation, the enzyme storage buffer (50 mM sodium phosphate pH 8.0, 300 mM NaCl, 10% glycerol, 0.05% lauryl maltoside and 10 mM DTT) is exchanged for the assay buffer (25 mM MOPS pH 6.5, 300 mM NaCl, 10% glycerol, 0.05% lauryl maltoside, 5 μM EDTA and 5 μM DTT) utilizing a Biorad Bio-Spin P-6 prepacked column. • Substrate Synthesis and Purification: The synthesis of the substrates is done as reported by R. Zhang et al, (ibid.) and is initiated by anchoring Fmoc-Nva-OH to 2-chlorotrityl chloride resin using a standard protocol (K. Barlos et al, Int. J. Pept. Protein Res., 37 (1991), 513-520). The peptides are subsequently assembled, using Fmoc chemistry, either manually or on an automatic ABI model 431 peptide synthesizer. […] The combined filtrate and DCM wash is evaporated azeotropically (or repeatedly extracted by aqueous Na2CO3 solution) to remove the acid used in cleavage. The DCM phase is dried over Na2SO4 and evaporated.
The ester substrates are assembled using standard acid-alcohol coupling procedures (K. Holmber et al, Acta Chem. Scand., B33 (1979) 410-412). Peptide fragments are dissolved in anhydrous pyridine (30-60 mg/ml) to which 10 molar equivalents of chromophore and a catalytic amount (0.1 eq.) of para-toluenesulfonic acid (PTSA) were added. Dicyclohexylcarbodiimide (DCC, 3 eq.) is added to initiate the coupling reactions. Product formation is monitored by HPLC and can be found to be complete following 12-72 hour reaction at room temperature. Pyridine solvent is evaporated under vacuum and further removed by azeotropic evaporation with toluene.
As to `CC(C)[C@@H](CN1CCCS1(=O)=O)NC(=O)N[C@H](C(=O)N1C[C@H]2[C@@H]([C@H]1C(=O)NC(CC1CCC1)C(=O)C(N)=O)C2(C)C)C(C)(C)C` (stereo partly drawn) [Compound 5106], the Ki is at most 50 nM.

For `C=CCNC(=O)C(=O)C(CC1CC1)NC(=O)[C@@H]1[C@@H]2[C@H](CN1C(=O)[C@@H](NC(=O)N[C@H](CN1CCCS1(=O)=O)C(C)C)C(C)(C)C)C2(C)C` (stereo partly drawn) [Compound 5107], the Ki was at most 50 nM.

With `C=CCNC(=O)C(=O)C(CCC(F)(F)F)NC(=O)[C@@H]1[C@@H]2[C@H](CN1C(=O)[C@@H](NC(=O)N[C@H](CN1CCCS1(=O)=O)C(C)C)C(C)(C)C)C2(C)C` (stereo partly drawn) [Compound 5108], the Ki is above 50 nM.

On to `CC(C)[C@@H](CN1CCCS1(=O)=O)NC(=O)N[C@H](C(=O)N1C[C@H]2[C@@H]([C@H]1C(=O)NC(CC1CC1)C(=O)C(N)=O)C2(C)C)C(C)(C)C` (stereo partly drawn) [Compound 5109], for which the Ki was at most 50 nM.

For `CNC(=O)C(=O)C(CC1CC1)NC(=O)[C@@H]1[C@@H]2[C@H](CN1C(=O)[C@@H](NC(=O)N[C@H](CN1CCCS1(=O)=O)C(C)C)C(C)(C)C)C2(C)C` (stereo partly drawn) [Compound 5110], the inhibition constant (Ki) was at most 50 nM.

In the case of `C=CCNC(=O)C(=O)C(CCCC)NC(=O)[C@@H]1[C@@H]2[C@H](CN1C(=O)[C@@H](NC(=O)N[C@H](CN1CCCS1(=O)=O)C(C)C)C(C)(C)C)C2(C)C` (stereo partly drawn) [Compound 5111], the inhibition constant (Ki) was at most 50 nM.

`C=CCNC(=O)C(=O)C(CCCC)NC(=O)[C@@H]1[C@@H]2[C@H](CN1C(=O)[C@@H](NC(=O)N[C@H](CN1CCCS1(=O)=O)C(C)(C)C)C(C)(C)C)C2(C)C` (stereo partly drawn) [Compound 5112]: the Ki is at most 50 nM.

In the case of `CC(C)(C)[C@H](NC(=O)N[C@H](CN1CCCS1(=O)=O)C(C)(C)C)C(=O)N1C[C@H]2[C@@H]([C@H]1C(=O)NC(CC1CC1)C(=O)C(N)=O)C2(C)C` (stereo partly drawn) [Compound 5113], the inhibition constant (Ki) is at most 50 nM.

As to `C=CCNC(=O)C(=O)C(CC1CC1)NC(=O)[C@@H]1[C@@H]2[C@H](CN1C(=O)[C@@H](NC(=O)N[C@H](CN1CCCS1(=O)=O)C(C)(C)C)C(C)(C)C)C2(C)C` (stereo partly drawn) [Compound 5114], the Ki is at most 50 nM.

In the case of `C=CCNC(=O)C(=O)C(CCC)NC(=O)[C@@H]1[C@@H]2[C@H](CN1C(=O)[C@@H](NC(=O)N[C@H](CN1CCCS1(=O)=O)C(C)(C)C)C(C)(C)C)C2(C)C` (stereo partly drawn) [Compound 5115], the Ki is at most 50 nM.

As to `CC(C)(C)[C@H](NC(=O)N[C@H](CN1CCCS1(=O)=O)C(C)(C)C)C(=O)N1C[C@H]2[C@@H]([C@H]1C(=O)NC(CC1CCC1)C(=O)C(N)=O)C2(C)C` (stereo partly drawn) [Compound 5116], the Ki is at most 50 nM.

Consider `CNC(=O)C(=O)C(CC1CC1)NC(=O)[C@@H]1[C@@H]2[C@H](CN1C(=O)[C@@H](NC(=O)N[C@H](CN1CCCS1(=O)=O)C(C)(C)C)C(C)(C)C)C2(C)C` (stereo partly drawn) [Compound 5117], for which the Ki is at most 50 nM.

Take `CNC(=O)C(=O)C(CCC(F)(F)F)NC(=O)[C@@H]1[C@@H]2[C@H](CN1C(=O)[C@@H](NC(=O)N[C@H](CN1CCCS1(=O)=O)C(C)(C)C)C(C)(C)C)C2(C)C` (stereo partly drawn) [Compound 5118]: the Ki was at most 50 nM.

With `C=CCNC(=O)C(=O)C(CCC(F)(F)F)NC(=O)[C@@H]1[C@@H]2[C@H](CN1C(=O)[C@@H](NC(=O)N[C@H](CN1CCCS1(=O)=O)C(C)(C)C)C(C)(C)C)C2(C)C` (stereo partly drawn) [Compound 5119], the Ki is at most 50 nM.

Regarding `CCCC(NC(=O)[C@@H]1[C@@H]2[C@H](CN1C(=O)[C@@H](NC(=O)N[C@H](CN1CCCS1(=O)=O)C(C)(C)C)C(C)(C)C)C2(C)C)C(=O)C(N)=O` (stereo partly drawn) [Compound 5120], the Ki is at most 50 nM.

Take `C=CCNC(=O)C(=O)C(CCC)NC(=O)[C@@H]1[C@@H]2[C@H](CN1C(=O)[C@@H](NC(=O)N[C@H](CN1CCCCS1(=O)=O)C(C)(C)C)C(C)(C)C)C2(C)C` (stereo partly drawn) [Compound 5121]: the Ki was at most 50 nM.

Turning to `CCCC(NC(=O)[C@@H]1[C@@H]2[C@H](CN1C(=O)[C@@H](NC(=O)N[C@H](CN1CCCS1(=O)=O)C(C)(C)C)C(C)(C)C)C2(C)C)C(=O)C(=O)NC` (stereo partly drawn) [Compound 5122], the Ki was at most 50 nM.

In the case of `CCCC(NC(=O)[C@@H]1[C@@H]2[C@H](CN1C(=O)[C@@H](NC(=O)N[C@H](CN1CCCS1(=O)=O)C(C)(C)C)C(C)(C)C)C2(C)C)C(=O)C(=O)NCC` (stereo partly drawn) [Compound 5123], the Ki was at most 50 nM.

On to `CCCCC(NC(=O)[C@@H]1[C@@H]2[C@H](CN1C(=O)[C@@H](NC(=O)N[C@H](CN1CCCS1(=O)=O)C(C)(C)C)C(C)(C)C)C2(C)C)C(=O)C(=O)NC` (stereo partly drawn) [Compound 5124], for which the Ki is at most 50 nM.

Take `C#CCC(NC(=O)[C@@H]1[C@@H]2[C@H](CN1C(=O)[C@@H](NC(=O)N[C@H](CN1CCCS1(=O)=O)C(C)(C)C)C(C)(C)C)C2(C)C)C(=O)C(=O)NCC=C` (stereo partly drawn) [Compound 5125]: the Ki was at most 50 nM.

With `C=CCNC(=O)C(=O)C(CCC)NC(=O)[C@@H]1[C@@H]2[C@H](CN1C(=O)[C@@H](NC(=O)N[C@H](CN1CCCN(C)S1(=O)=O)C(C)(C)C)C(C)(C)C)C2(C)C` (stereo partly drawn) [Compound 5126], the Ki was at most 50 nM.

Consider `C=CCNC(=O)C(=O)C(CC1CC1)NC(=O)[C@@H]1[C@@H]2[C@H](CN1C(=O)[C@@H](NC(=O)N[C@H](CN1CCCN(C)S1(=O)=O)C(C)(C)C)C(C)(C)C)C2(C)C` (stereo partly drawn) [Compound 5127], for which the Ki was at most 50 nM.

`CCCC(NC(=O)[C@@H]1[C@@H]2[C@H](CN1C(=O)[C@@H](NC(=O)N[C@H](CN1CCCN(C)S1(=O)=O)C(C)(C)C)C(C)(C)C)C2(C)C)C(=O)C(=O)NC` (stereo partly drawn) [Compound 5128]: the Ki is at most 50 nM.

For `C=CCNC(=O)C(=O)C(CCC)NC(=O)[C@@H]1[C@@H]2[C@H](CN1C(=O)[C@@H](NC(=O)N[C@H](CN1CCN(C(=O)OCc3ccccc3)S1(=O)=O)C(C)(C)C)C(C)(C)C)C2(C)C` (stereo partly drawn) [Compound 5129], the Ki is at most 50 nM.

As to `CN1CCCN(C[C@@H](NC(=O)N[C@H](C(=O)N2C[C@H]3[C@@H]([C@H]2C(=O)NC(CC2CC2)C(=O)C(N)=O)C3(C)C)C(C)(C)C)C(C)(C)C)S1(=O)=O` (stereo partly drawn) [Compound 5130], the inhibition constant (Ki) is at most 50 nM.

For `CN1CCCN(C[C@@H](NC(=O)N[C@H](C(=O)N2C[C@H]3[C@@H]([C@H]2C(=O)NC(CC2CCC2)C(=O)C(N)=O)C3(C)C)C(C)(C)C)C(C)(C)C)S1(=O)=O` (stereo partly drawn) [Compound 5131], the Ki is at most 50 nM.

The same assay, now with this note: Table 2; ranges of Ki* values in HCV continuous assay.
Take `CC(C)[C@@H](CN1CCCCC1=O)NC(=O)N[C@H](C(=O)N1C[C@H]2[C@@H]([C@H]1C(=O)NC(CC1CCC1)C(=O)C(N)=O)C2(C)C)C(C)(C)C` (mixture of isomers) [Compound 5632]: the Ki was at most 50 nM.

`CC(C)(C)[C@H](NC(=O)N[C@H](CN1CCCCC1=O)C(C)(C)C)C(=O)N1C[C@H]2[C@@H]([C@H]1C(=O)NC(CC1CCC1)C(=O)C(N)=O)C2(C)C` (mixture of isomers) [Compound 5644]: the Ki was at most 50 nM.

With `CC(C)(C)[C@H](NC(=O)N[C@H](Cn1ccccc1=O)C(C)(C)C)C(=O)N1C[C@H]2[C@@H]([C@H]1C(=O)NC(CC1CCC1)C(=O)C(N)=O)C2(C)C` (mixture of isomers) [Compound 5648], the Ki was at most 50 nM.

On to `CC(C)(C)[C@H](NC(=O)N[C@H](CN1CCCNC1=O)C(C)(C)C)C(=O)N1C[C@H]2[C@@H]([C@H]1C(=O)NC(CC1CCC1)C(=O)C(N)=O)C2(C)C` (mixture of isomers) [Compound 5665], for which the Ki was at most 50 nM.

With `CN1CCCN(C[C@@H](NC(=O)N[C@H](C(=O)N2C[C@H]3[C@@H]([C@H]2C(=O)NC(CC2CCC2)C(=O)C(N)=O)C3(C)C)C(C)(C)C)C(C)(C)C)C1=O` (mixture of isomers) [Compound 5688], the inhibition constant (Ki) was at most 50 nM.

Turning to `CC(C)(C)[C@H](NC(=O)N[C@H](CN1CCCOC1=O)C(C)(C)C)C(=O)N1C[C@H]2[C@@H]([C@H]1C(=O)NC(CC1CCC1)C(=O)C(N)=O)C2(C)C` (mixture of isomers) [Compound 5700], the Ki was at most 50 nM.

For `C=CCNC(=O)C(=O)C(CC1CC1)NC(=O)[C@@H]1[C@@H]2[C@H](CN1C(=O)[C@@H](NC(=O)N[C@H](CN1Cc3ccccc3C1=O)C(C)(C)C)C(C)(C)C)C2(C)C` (mixture of isomers) [Compound 5743], the inhibition constant Ki was at most 50 nM.
